Test results reported in PubChem BioAssay AID504832 (National Center for Advancing Translational Sciences (NCATS), 2011).
Out of some 310,000 compounds screened, about 18,000 (5.8%) were called active. The shares of active, inactive and inconclusive entries below differ from those in the screen. The call rests on the fitted dose curve; in most records, active means well fitted inhibition curve with a large enough effect; inconclusive means small, poorly fitted or top-dose-only effect, or another doubt; inactive means no such curve, though single readings can be large or run the other way. No potency is given beside an inconclusive call; the fits are too rough.

assay: Primary qHTS for delayed death inhibitors of the malarial parasite plastid, 48 hour incubation; conditions: P. falciparum luciferase growth in erythrocytes; series mostly up to 28.7 µM
How it was run: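 Read-out is firefly luciferase luminescence from an integrated reporter in P. falciparum, so falling signal marks reduced parasite growth. Infected erythrocytes were at 2% hematocrit and 0.1% parasitemia (final) in Albumax-supplemented RPMI 1640.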
Potency means the concentration at half of the fitted maximal effect; tags describe the fitted curve by direction and shape.

For `CCOc1ccccc1Nc1nnc(Cc2ccccc2Cl)c(=O)[nH]1`, which Potency is on record?
The Potency was inconclusive [inhibitor, full curve, poor fit].

For `CCOC(=O)C(=CNc1ccc(NC2=NCC(C)S2)cc1)C(=O)OCC` (centres undefined), which Potency is on record?
Its Potency is active: 9.28 µM.

Which Potency does the source give for `O=c1c2ccccc2c(-c2ccc(Cl)cc2)nn1-c1ccccc1` here?
The Potency was active: 3.29 µM.

With `COc1ccc(NC(=O)C(NC(=O)c2ccc(=O)[nH]c2)c2ccc(C)cc2)cc1` (centres undefined) as the compound, how does the Potency read?
Its Potency is inconclusive [inhibitor, partial curve, poor fit].

With `O=C(CCc1ccccn1)N1CCCC(N2CCN(c3ccc(F)cc3)CC2)C1` (centres undefined) as the compound, how does the Potency read?
Its Potency is inconclusive [inhibitor, single point].

Which Potency does the source give for `Cc1ccc(NC(=S)Nc2ccccn2)cc1C` here?
Its Potency is inconclusive [inhibitor, single point].

With `CN(C)CCOc1ccccc1Cc1ccccc1` as the compound, how does the Potency read?
The Potency was inconclusive [inhibitor, full curve, poor fit].

For `N#Cc1ccc(CSc2ncnc3c2cnn3Cc2ccccc2)cc1`, which Potency is on record?
Its Potency is inconclusive [inhibitor, partial curve, poor fit].

For `CSc1ncccc1C(=O)OCc1ccccc1F`, which Potency is on record?
Its Potency is inconclusive [inhibitor, full curve].

With `COC(=O)/C=C/C(=O)Nc1cccc(C(F)(F)F)c1` as the compound, how does the Potency read?
The Potency was inconclusive [inhibitor, single point].

Which Potency does the source give for `O=C(NC1CCN(Cc2ccccc2)CC1)c1cc(S(=O)(=O)Nc2ccc(F)cc2)ccc1Cl` here?
Its Potency is active: 9.28 µM.

Which Potency does the source give for `C[C@]12C(=O)N(c3ccccc3)C(=O)N1[C@@H]1c3ccccc3OC[C@@H]1[C@H]2c1ccccc1` here?
Its Potency is inconclusive [inhibitor, single point].

With `Cc1nn(C)c(C)c1S(=O)(=O)N1CCCC(C(=O)NC2CCCCCC2)C1` (centres undefined) as the compound, how does the Potency read?
Its Potency is “inactive”.

Which Potency does the source give for `O=C(Nc1nc2ccccc2[nH]1)c1cccc(Br)c1` here?
The Potency was “inactive”.

For `Cc1[nH]n(-c2ccccc2)c(=O)c1/C=N/NC(=O)COc1ccccc1[N+](=O)[O-]`, which Potency is on record?
The Potency was inconclusive [inhibitor, single point].

For `CCOC(=O)C1=C(C)NC(=O)C(C#N)C1c1ccco1` (centres undefined), which Potency is on record?
The Potency was “inactive”.

Which Potency does the source give for `Cc1ccccc1NC(=O)Cn1cnc2c(oc3nc4c(cc32)CCCC4)c1=O` here?
The Potency was inconclusive [inhibitor, partial curve].

For `Cc1cc(C)c(NC(=O)c2cccc(NC(=O)c3ccco3)c2)c(C)c1`, which Potency is on record?
The Potency was inconclusive [inhibitor, partial curve, poor fit].

Which Potency does the source give for `CCOc1cc(CNc2ncc(-c3ccc(OC)cc3)n2C)ccc1O` here?
Its Potency is inconclusive [inhibitor, single point].

For `N/C(=N\OC(=O)CC1CCCCC1)c1ccccc1`, which Potency is on record?
The Potency was inconclusive [inhibitor, single point].

For `O=C(CCc1nc2ccccc2s1)N1CCN(S(=O)(=O)c2cccs2)CC1`, which Potency is on record?
The Potency was inconclusive [inhibitor, partial curve, poor fit].

With `COc1ccc(N2CCN(C(CNC(=O)C(=O)NCc3ccc4c(c3)OCO4)c3ccco3)CC2)cc1` (centres undefined) as the compound, how does the Potency read?
The Potency was inconclusive [inhibitor, partial curve, poor fit].

With `O=C(NCC(c1ccco1)N1CCc2ccccc2C1)c1ccc(Cl)c([N+](=O)[O-])c1` (centres undefined) as the compound, how does the Potency read?
The Potency was inconclusive [inhibitor, single point].

Which Potency does the source give for `COc1cc(C(C(=O)NC(C)(C)C)N(C(=O)CNC(=O)c2cccs2)c2ccc(C(C)C)cc2)cc(OC)c1OC` (centres undefined) here?
Its Potency is inconclusive [inhibitor, partial curve, poor fit].

Which Potency does the source give for `CS(=O)(=O)Nc1ccc(C(=O)Nc2ccccc2C(=O)NCc2ccco2)cc1` here?
Its Potency is inconclusive [inhibitor, partial curve, poor fit].

Which Potency does the source give for `CCCCN(Cc1ccccc1)C1CCN(CCc2ccccc2)CC1` here?
Its Potency is inconclusive [inhibitor, single point].

For `Cc1ccn2c(-c3csc(NCc4ccco4)n3)c(C)nc2c1`, which Potency is on record?
Its Potency is active: 11.7 µM.

Which Potency does the source give for `CCOC(=O)c1c(C)[nH]c(C(=O)COC(=O)c2ccncc2)c1C` here?
The Potency was inconclusive [inhibitor, single point].

With `CC1CN(c2nc3ccccc3nc2C(C#N)C(=O)NCc2ccc3c(c2)OCO3)CC(C)O1` (centres undefined) as the compound, how does the Potency read?
Its Potency is inconclusive [inhibitor, single point].

Which Potency does the source give for `CSc1cccc(NC(=O)C2CCCN(S(=O)(=O)c3ccc(F)cc3)C2)c1` (centres undefined) here?
The Potency was inconclusive [inhibitor, single point].

For `CCc1cc(C(=O)N2CCN(C(=O)c3ccccc3)CC2)sc1C`, which Potency is on record?
The Potency was inconclusive [inhibitor, partial curve].

For `O=C(O)CCCn1cc(NC(=O)COc2cc(F)ccc2[N+](=O)[O-])cn1`, which Potency is on record?
The Potency was inconclusive [inhibitor, full curve, poor fit].

For `Cc1ccccc1OCC(=O)N/N=C/c1ccc(N(C)C)cc1`, which Potency is on record?
Its Potency is inconclusive [inhibitor, single point].

With `CCCN(CCC)S(=O)(=O)c1cc(Br)cc2c1N(C(=O)CC)CC2` as the compound, how does the Potency read?
Its Potency is active: 1.04 µM.

For `CCOc1ccc(CN2CCNC(=O)C2CC(=O)NCc2csc(C)n2)cc1` (centres undefined), which Potency is on record?
The Potency was “inactive”.

Which Potency does the source give for `CC(C)CN1CC(=O)N2C(c3ccccc3)c3[nH]c4ccccc4c3C[C@H]2C1=O` (some centres undefined) here?
The Potency was active: 11.7 µM.

With `CCN(CC)S(=O)(=O)c1cccc(N2CC(O)=C(c3ccccc3)C2=N)c1` as the compound, how does the Potency read?
The Potency was active: 2.62 µM.

For `CN(CC(=O)N1CCN(Cc2ccccc2)CC1)S(=O)(=O)c1ccc(F)cc1`, which Potency is on record?
The Potency was “inactive”.

For `Cc1ccc(S(=O)(=O)N2CCCCC2)cc1C(=O)Nc1ncn[nH]1`, which Potency is on record?
Its Potency is “inactive”.

With `COCc1nc2ccccc2n1Cc1ccccc1` as the compound, how does the Potency read?
Its Potency is “inactive”.

With `CCC12CN3CC(CC)(CN(C1)C3c1cccnc1)C2=O` (centres undefined) as the compound, how does the Potency read?
The Potency was inconclusive [inhibitor, single point].

With `O=S(=O)(NCc1ccccc1)c1cccc2cccnc12` as the compound, how does the Potency read?
Its Potency is “inactive”.

With `CCOc1cc(CNc2cccc3[nH]c(C)nc23)ccc1OC` as the compound, how does the Potency read?
Its Potency is active: 11.7 µM.

Which Potency does the source give for `Cc1nn(Cc2ccc(Cl)c(Cl)c2)c(C)c1NC(=O)c1cc(-c2ccco2)on1` here?
Its Potency is inconclusive [inhibitor, single point].
